Measured values from PubChem BioAssay AID493208 (National Center for Advancing Translational Sciences (NCATS), 2011).
Hit rate of the full screen: of about 44,000 compounds, about 340 (0.77%) were called active. Inconclusive results (about 5%) are left out. Calls follow the shape of the dose curve; as a rule, active = well fitted inhibition curve with a large enough effect; inconclusive = small, poorly fitted or top-dose-only effect; inactive = flat fitted curve, though single readings scatter. The list shows a part of the results.

Test: Acumen qHTS Assay for Inhibitors of the mTORC1 Signaling Pathway in MEF (Tsc2-/-, p53-/-) Cells: Sytravon;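 also: plate controls were DMSO for no effect and rapamycin for full effect; nearly all actives have a fitted effect of over 50% in size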
Settings: phospho-rpS6 immunofluorescence/PI, 24 h; series mostly up to 38.3 µM; activity change, negative = inhibition: at the top concentration
Summary of the method: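 Tsc2-/-, p53-/- mouse embryonic fibroblasts (empty-vector line) exposed to compound 24 hrs at 37 C, fixed, immunostained for phospho-rpS6 and counterstained with propidium iodide. Acumen laser scanning gives % positive cells from Alexa 488/PI ratio, thresholded using 7.5 nM rapamycin; PI count gives viability.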

Activity change, negative = inhibition, inactive:
Cc1ccc(-n2nnc(-c3nc(-c4cccs4)no3)c2N)cc1C 6.6%
CCOC(=O)c1ccccc1NC(=O)CN1CCCN(Cc2cc(C)ccc2C)S1(=O)=O -4.08%
COc1cc(NC(=O)CN2C(=O)c3ccccc3Sc3ccc(C(=O)N4CCCC4)cc32)cc(OC)c1 -3.16%
COc1ccc(OC)c(CCNC(=O)c2ccc3c(c2)c(C)c(C)n3Cc2ccccc2)c1 7.21%
CCOC(=O)c1[nH]c2ccccc2c1NC(=O)c1ccccc1F 4.21%
Cc1oc2ncnc(N3CCCCC3)c2c1C(=O)NCC1CCN(Cc2cccc(F)c2)CC1 -22.8%
CCN1CCN(CCCNC(=O)CS(=O)(=O)Cc2nc(-c3cccc(OC)c3)oc2C)CC1 -11.4%
CCC(C)NS(=O)(=O)c1ccc(N2CCCCS2(=O)=O)cc1 (configuration not stated) 4.15%
COc1ccc(C)cc1NC(=O)C1CCCN(S(=O)(=O)c2ccc3c(c2)CCCN3C(C)=O)C1 (configuration not stated) -4.52%
Cc1ccc(C(=O)Nc2ccc(C(=O)O)cc2)cc1S(=O)(=O)Nc1ccccc1 -1.08%
Cc1ccc(-n2c3c(c(=O)[nH]c2=O)C(NS(=O)(=O)c2ccc(Cl)cc2)(C(F)(F)F)C(=O)N3)cc1 (configuration not stated) 2.88%
Fc1cccc(NCc2ccccc2-c2nnc(-c3ccccc3Cl)o2)c1 -12%
NC(=O)C1CCN(c2ncnc3c2cnn3-c2ccccc2)CC1 -5.46%
O=c1c2oc3ccccc3c2n(Cc2ccc(Cl)cc2)c(=O)n1Cc1ccc2c(c1)OCO2 -1.07%
CCC(CC)C(=O)Nc1nnc(SCc2cc(=O)c3ccccc3[nH]2)s1 -3.22%
COCCNC(=O)CSc1nc2cc3c(cc2c(=O)n1CCCC(=O)NCCc1ccc(OC)c(OC)c1)OCO3 -4.71%
CCC(C)(C)NC(=O)C1CCC(CNS(=O)(=O)c2ccc3c(c2)CC(C)N3C(C)=O)CC1 (configuration not stated) -19.2%
Cc1ccc(Cl)cc1N1CCN(C2(c3ccccc3)C(=O)c3ccccc3C2=O)CC1 -8.85%
COc1cccc(NC(=O)Cn2c(=O)n(-c3cccc(OC)c3)c(=O)c3sc4ccccc4c32)c1 -10.1%
CCOCCCNC(=O)CN1C(=O)c2cccnc2Sc2ccccc21 8.22%
CCCCNC(=O)CCCN1C(=O)CCn2nc(-c3cccn3C)cc21 -0.594%
Fc1ccccc1N1CCN(c2nnc(C(F)(F)F)c3nnn(Cc4ccccc4)c23)CC1 4.83%
O=C(Cn1c(SCCOc2ccccc2Cl)nc2ccccc21)N1CCOCC1 1.79%
COc1ccc2c(CNCc3ccco3)c(C(=O)O)n(Cc3ccc(F)cc3Cl)c2c1 -1.81%
CCc1ccc(NC(=O)CSc2nc(-c3ccccc3)no2)cc1 -5.76%
COc1ccc(CCNc2ncnc3c2nnn3C)cc1OC -7.78%
CN(C)S(=O)(=O)N(CC(=O)Nc1ccc(Br)cc1F)c1ccccc1 -7.97%
COc1ccccc1Cn1ccn(CC(=O)Nc2c(C)cc(C)cc2C)c(=O)c1=O 7.74%
CC(C)C(=O)NC1CC(=O)N(c2ccc3c(c2)OCCO3)C1 (configuration not stated) -0.0162%
Cc1nnc(N2CCN(c3ccc(Cl)cc3)CC2)c2c1nnn2Cc1ccc(F)cc1 2.83%
COc1cccc(C(c2sc3nc(-c4ccco4)nn3c2O)N2CCCC2)c1 (configuration not stated) 2.64%
Cc1ccc(-n2nc(C)c3c(C)cc(=O)n(CC(=O)Nc4ccc(C(C)C)cc4)c32)cc1 16.3%
COc1ccc(NC(=O)c2c(NCc3cccs3)sc3c2CCCCC3)cc1 -8.92%
CN(C1CCCCC1)S(=O)(=O)c1ccc(F)c(C(=O)Nc2ccc(C(F)(F)F)cc2)c1 9.78%
Cc1c(C(=O)Nc2cccc(F)c2)sc2nc(-c3cc4ccccc4oc3=O)[nH]c(=O)c12 5.37%
CC1CCCCN1C(=O)c1ccc2c(c1)N(Cc1ccc(Cl)cc1)C(=O)c1ccccc1S2=O (configuration not stated) -0.29%
COc1cc(OC)cc(C(=O)NCCc2csc(-c3cccc(C)c3)n2)c1 -29.9%
CCc1ccc(NC(=O)C(=O)NCCc2sc(-c3ccc(OC)c(OC)c3)nc2C)cc1 -0.0275%
O=C(NCc1ccccc1Cl)c1ccc2c(c1)N(Cc1ccccc1)C(=O)c1ccccc1S2 0%
CCOC(=O)c1[nH]c2ccccc2c1NC(=O)c1c(F)cccc1F -27.3%
CCOC(=O)c1sc2ncn(CC(=O)Nc3cccc(C)c3)c(=O)c2c1C -27.2%
COc1cccc(OCCCn2c(-c3ccc(Cl)cc3)nc3ccccc3c2=O)c1 0.0932%
CCc1cccc(NC(=O)c2cc(-c3ccccc3)n[nH]2)c1 -6.38%
O=C(Nc1cccc(Cl)c1)C1CCN(c2nc3ccccc3nc2C(F)(F)F)CC1 5.08%
CCCCNC(=O)c1cnc2sc(N3CCCCC3)nn2c1=O 6.59%
Cc1ccccc1Cn1c(=O)n(Cc2ccco2)c(=O)c2oc3ccccc3c21 3.45%
O=C(c1ccc2c(c1)CCN2S(=O)(=O)c1ccc(Cl)cc1)N1CCN(c2ccccc2F)CC1 1.82%
CN(C)c1ccc(CN2CCc3nc(N4CCN(c5ccccn5)CC4)ncc3C2)cc1 0.231%
Cc1c(F)cccc1NS(=O)(=O)c1cccs1 1%
Cc1cc(OC(C)C(=O)N2CCN(CCc3ccccn3)CC2)ccc1Cl (configuration not stated) -2.42%
Cc1nc2c(c(SCC(=O)Nc3ccccc3C(F)(F)F)n1)CCC2 -15.2%
CC(C)N(Cc1ccccc1)C(=O)c1cc2ccc3cccnc3c2[nH]1 0.561%
CCOc1ccccc1N1CC(c2nc3ccccc3n2CCCOc2ccccc2)CC1=O (configuration not stated) -2.09%
CCC(CC)C(=O)Nc1ccc(OCc2cc(=O)n3ccc(C)cc3n2)cc1 0%
CCOC(=O)C1CCN(C(=O)c2nn(-c3ccc(C)cc3)c(=O)c3c2c2ccccc2n3C)CC1 -6.29%
Cc1ccccc1Nc1nnc(-c2ccc(C)c(S(=O)(=O)N3CCN(C)CC3)c2)c2ccccc12 -13.1%
COc1ccc(S(=O)(=O)NC(C)C)cc1-n1cnnn1 -1.26%
O=C(Nc1ccc(OC(F)(F)F)cc1)C1CCCN(S(=O)(=O)c2ccc(Br)s2)C1 (configuration not stated) -1.45%
O=C(Cc1csc2ccccc12)NCc1ccc(F)cc1 -0.622%
COc1ccc(Br)cc1CNC(=O)CN1C(=O)CCCc2ccccc21 4.73%
CC(C)(C)c1ccc(C(=O)Nc2nc3nc(-c4ccccc4)cc(=O)n3[nH]2)cc1 -1.3%
Cc1ccc(NC(=O)Cn2c(SCc3cccc(F)c3)nc3ccncc32)c(C)c1 -0.865%
C#CC(C)(CC)NC(=O)Cn1nnc(-c2ccc(OCc3ccccc3Cl)cc2)n1 (configuration not stated) -0.268%
COc1ccc(C(=O)NCC(c2cccnc2)N2CCN(c3ccccc3OC)CC2)cc1 (configuration not stated) -1.73%
COc1cccc(NC(c2nnc(-c3ccccc3)o2)c2ccc(F)cc2Cl)c1 (configuration not stated) -2.72%
COCCCNC(=O)C1CCCN(c2ncnc3onc(C)c23)C1 (configuration not stated) -13.9%
COc1ccc(CCNC(=O)c2ccc3c(Cl)c4c(nc3c2)CCCC4)cc1OC -12.1%
Cc1c(CCC(=O)NCc2ccc(F)cc2)c(=O)oc2cc(O)ccc12 -9.63%
CCCN(CCC)C(=O)c1c[nH]c2ccc(S(=O)(=O)N(C)c3ccc(OCC)cc3)cc2c1=O -2.18%
CCc1ccc(C(=O)c2cn(CC(=O)Nc3ccc4c(c3)OCCO4)c3ccc(CC)cc3c2=O)cc1 -9.91%
Cc1ccc2oc(C(=O)Nc3nc(-c4ccc(F)cc4)ns3)c(C)c2c1 3.03%
Cc1ccccc1OCC(=O)Nc1ccc(C(=O)OCc2cc(=O)n3c(C)csc3n2)cc1 0%
COc1cccc(NC(=O)CSC2=Nc3ccccc3C3=NC(CC(=O)NCc4cccs4)C(=O)N23)c1 (configuration not stated) -3.54%
COc1ccc(C2c3c(oc4cc(C)cc(C)c4c3=O)C(=O)N2Cc2ccco2)cc1OC (configuration not stated) 1.53%
Cc1cccc(N2CCN(C(=O)c3cc4c(=O)[nH]c5ccc(C)cc5c4s3)CC2C)c1 (configuration not stated) -6.65%
COc1ccc(CNC(=O)CSCc2cnn(-c3ccccc3)c2-n2cccc2)cc1OC -4.33%
CC(=O)N1CCN(c2nc3c(F)cc(F)cc3s2)CC1 0.104%
COc1ccc(Cn2c(CNC(=O)Cc3cccc([N+](=O)[O-])c3)nc3cccnc32)cc1 -5.26%
Cc1cc(C)cc(NC(=O)c2sc3nc[nH]c(=O)c3c2C)c1 -12.5%
CCOC(=O)Cn1c(=O)n(CC2CCCO2)c2nc(-c3ccccc3Cl)nc(C(N)=O)c21 (configuration not stated) -0.0481%
CCOC(=O)c1ccc(CN(Cc2ccc(OC)cc2)S(=O)(=O)c2cccc(C(F)(F)F)c2)cc1 3.08%
O=c1c(N2CCc3ccccc3C2)csc2ccc(F)cc12 3.93%
CCOc1ccc(N(CC)C(=O)c2noc3c2COc2ccc(C)cc2-3)cc1 -7.11%
COc1ccccc1C(=O)Nc1c(C(=O)c2ccccc2)oc2ccccc12 -2.43%
CC1=C(C(=O)Nc2ccccc2C)C(c2cccs2)n2nc(SCc3cc(C)ccc3C)nc2N1 (configuration not stated) -6.46%
CCOc1ccccc1NC(=O)C1=C(C)Nc2ncnn2C1c1sccc1C (configuration not stated) 0%
Cc1ccc(CNC(=O)c2c(-c3ccc(Br)cc3)noc2C)o1 0.882%
O=C(CCCn1c(=O)c2cccn2c2cccnc21)Nc1ccccc1C(F)(F)F 3.52%
Cc1c(C(=O)NCc2ccccc2)oc2ccc(S(=O)(=O)N3CCC(C)CC3)cc12 -20.6%
O=C(NCCc1ccc(Cl)cc1)C(=O)NCC(c1ccco1)S(=O)(=O)c1ccccc1 (configuration not stated) -5.58%
Cc1ccc(NC(=O)C(=O)NCC(c2cccnc2)N2CCN(C)CC2)cc1 (configuration not stated) -12%
CCn1c(CN2CCCCC2)nc2cc(NC(=O)COc3ccccc3C(C)(C)C)ccc21 -1.14%
Cc1coc2c1c(C)cc1oc(=O)c(CC(=O)NCCc3ccc(Cl)cc3)c(C)c12 -6.01%
CCn1c2c(c(=O)n3ncc(C(=O)Nc4ccc(C(=O)OC)cc4)c13)CN(Cc1ccc(OC)cc1)CC2 0.203%
COc1ccc(C)cc1NC(=O)c1ccc2nc(Cc3ccccc3)oc2c1 -16.1%
COc1ccc(CCNC(=O)c2c(O)nc3c(C)cccn3c2=O)cc1OC -26.5%
COc1ccc(NC(=O)c2c(N)c(C(=O)c3ccc(OC)cc3)n3ccccc23)cc1 3.48%
